{"source": "paper PMC4336329", "about": "(PLoS ONE, 2015)", "note": "The whole screen tested about 310,000 compounds, of which about 14,000 (4.5%) showed an effect of 50% or more. Effects have a minus sign here. The list shows a part of the results.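 Further: peak tail current of the secondary pulse compared with the same well before compound.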"}
{"target": "human ether-à-go-go-related gene (hERG) potassium channel (human, UniProt Q12809)", "sequence (Q12809 whole entry, looked up)": "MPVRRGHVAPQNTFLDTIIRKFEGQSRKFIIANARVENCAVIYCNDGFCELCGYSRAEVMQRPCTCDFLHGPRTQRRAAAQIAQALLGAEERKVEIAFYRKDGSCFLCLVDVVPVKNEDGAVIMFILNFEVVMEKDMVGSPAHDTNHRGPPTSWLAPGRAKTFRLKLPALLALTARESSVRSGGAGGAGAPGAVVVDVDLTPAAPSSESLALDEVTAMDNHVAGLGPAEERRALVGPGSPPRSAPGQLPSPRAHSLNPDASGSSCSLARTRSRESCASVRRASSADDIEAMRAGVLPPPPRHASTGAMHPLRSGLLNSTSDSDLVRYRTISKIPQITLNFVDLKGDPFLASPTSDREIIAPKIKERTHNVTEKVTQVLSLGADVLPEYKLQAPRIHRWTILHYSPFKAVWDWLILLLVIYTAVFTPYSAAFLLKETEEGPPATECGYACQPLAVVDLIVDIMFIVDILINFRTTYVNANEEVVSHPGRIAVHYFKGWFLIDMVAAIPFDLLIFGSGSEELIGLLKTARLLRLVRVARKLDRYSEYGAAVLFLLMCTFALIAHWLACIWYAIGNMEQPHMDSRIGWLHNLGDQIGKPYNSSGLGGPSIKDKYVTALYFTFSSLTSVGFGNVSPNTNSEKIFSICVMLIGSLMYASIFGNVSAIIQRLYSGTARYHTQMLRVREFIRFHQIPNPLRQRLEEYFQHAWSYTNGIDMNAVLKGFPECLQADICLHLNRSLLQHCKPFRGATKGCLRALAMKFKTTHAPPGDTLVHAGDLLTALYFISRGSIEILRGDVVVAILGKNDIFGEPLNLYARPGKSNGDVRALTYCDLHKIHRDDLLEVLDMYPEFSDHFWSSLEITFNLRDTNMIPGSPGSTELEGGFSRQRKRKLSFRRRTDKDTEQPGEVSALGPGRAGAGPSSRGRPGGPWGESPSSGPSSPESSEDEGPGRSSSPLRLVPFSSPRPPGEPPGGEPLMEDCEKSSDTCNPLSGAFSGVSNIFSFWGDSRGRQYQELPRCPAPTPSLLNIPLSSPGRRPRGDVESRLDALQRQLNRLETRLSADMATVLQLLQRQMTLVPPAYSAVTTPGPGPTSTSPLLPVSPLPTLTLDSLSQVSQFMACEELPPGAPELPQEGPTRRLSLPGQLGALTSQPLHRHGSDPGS", "experiment": "primary screen, population patch clamp on CHO cells stably expressing hERG", "units": {"hERG current change (%, negative = inhibition) at 10uM": "%"}}
{"molecule": "CC1=CC(C)(C)NC(=S)N1c1ccccc1", "hERG current change (%, negative = inhibition) at 10uM": 13.6}
{"molecule": "CCc1ccccc1NC(=O)N1CCc2ccccc21", "hERG current change (%, negative = inhibition) at 10uM": 8.83}
{"molecule": "O=S(=O)(NC1CCCCCC1)c1ccc(Br)s1", "hERG current change (%, negative = inhibition) at 10uM": -29.3}
{"molecule": "CCCCC1=CC2=CC(=O)C(C)(OC(=O)CC)C(=O)C2=CN1C1CCCC1", "note": "(stereo not drawn)", "hERG current change (%, negative = inhibition) at 10uM": -49.4}
{"molecule": "CC(C)c1c(C(=O)N/N=C/c2ccsc2)nnn1-c1nonc1N", "hERG current change (%, negative = inhibition) at 10uM": 23.8}
{"molecule": "Cc1nn(-c2ccccc2)c(Cl)c1/C=N/NC(=O)c1ccn[nH]1", "hERG current change (%, negative = inhibition) at 10uM": -5.12}
{"molecule": "CN(C)C1(CNC(=O)Nc2ccc(Cl)c(Cl)c2)CCCCC1", "hERG current change (%, negative = inhibition) at 10uM": -50.1}
{"molecule": "COc1ccc2c(c1)C(SCC(=O)NCCc1ccccc1)CC(C)(C)O2", "note": "(stereo not drawn)", "hERG current change (%, negative = inhibition) at 10uM": -18.5}
{"molecule": "CC(C)C[C@H](NC(=O)N1CCn2c1nc1ccccc12)C(=O)N[C@@H](C(=O)O)c1ccccc1", "hERG current change (%, negative = inhibition) at 10uM": -9.47}
{"molecule": "CSCCC(NS(=O)(=O)c1ccccc1F)C(=O)Nc1ccncc1", "note": "(stereo not drawn)", "hERG current change (%, negative = inhibition) at 10uM": -10.8}
{"molecule": "CC1CCCN(Cc2nc3c(c(=O)n(C)c(=O)n3C)n2CCc2ccccc2)C1", "note": "(stereo not drawn)", "hERG current change (%, negative = inhibition) at 10uM": 1.9}
{"molecule": "CC(C)NC(=O)c1onc(CSc2ccc(F)cc2)c1C(=O)NC(C)C", "hERG current change (%, negative = inhibition) at 10uM": 1.14}
{"molecule": "CCN1CCN(C(=O)C2CCN(S(=O)(=O)c3ccc4c(c3)NC(=O)C(C)S4)CC2)CC1", "note": "(stereo not drawn)", "hERG current change (%, negative = inhibition) at 10uM": 14.1}
{"molecule": "COc1ccc(OC)c(Nc2nnc(C)c(=O)[nH]2)c1", "hERG current change (%, negative = inhibition) at 10uM": 6.27}
{"molecule": "COc1ccc(S(=O)(=O)N2CCN(C)CC2)cc1", "hERG current change (%, negative = inhibition) at 10uM": 6.84}
{"molecule": "CCc1cccc(CC)c1N(COC)C(=O)Cn1cnc2ccccc21", "hERG current change (%, negative = inhibition) at 10uM": -2.29}
{"molecule": "CC1CCCCN1C(=O)Cc1ccc(Cl)cc1", "note": "(stereo not drawn)", "hERG current change (%, negative = inhibition) at 10uM": -11.1}
{"molecule": "COc1cc(C(=O)Nc2cccc(-c3nc4ncccc4o3)c2C)cc(OC)c1OC", "hERG current change (%, negative = inhibition) at 10uM": 6.71}
{"molecule": "COC(=O)C1=CO[C@@H](O[C@@H]2O[C@H](CO)[C@@H](O)[C@H](O)[C@H]2O)C2C1C[C@H](O)[C@@H]2C", "note": "(stereo partly drawn)", "hERG current change (%, negative = inhibition) at 10uM": 17.8}
{"molecule": "Cc1csc(SCC(=O)NCc2ccccc2)n1", "hERG current change (%, negative = inhibition) at 10uM": 31.5}
{"molecule": "CNC(=O)c1c(NC(=O)C2=COCCO2)sc2c1CCCC2", "hERG current change (%, negative = inhibition) at 10uM": 2.86}
{"molecule": "O=C(CCS(=O)(=O)c1cccc2nsnc12)NCc1ccccc1", "hERG current change (%, negative = inhibition) at 10uM": -1.13}
{"molecule": "CC(C)Sc1cc(N2CCCC2)nc(-c2ccc(F)cc2)n1", "hERG current change (%, negative = inhibition) at 10uM": -2}
{"molecule": "CCOc1ccc(CCNC(=O)COC(=O)/C=C/c2ccc(OCC#N)c(OC)c2)cc1OCC", "hERG current change (%, negative = inhibition) at 10uM": -9.35}
{"molecule": "O=C(CSc1nc(-c2ccccc2)c(-c2ccccc2)o1)Nc1nnc(-c2ccccc2)s1", "hERG current change (%, negative = inhibition) at 10uM": 13.5}
{"molecule": "CCSc1nnc(NC(=O)CN2C(=O)C3CC=CCC3C2=O)s1", "note": "(stereo not drawn)", "hERG current change (%, negative = inhibition) at 10uM": 30.6}
{"molecule": "COc1cccc(C=Nc2ccc3c(c2)CCC3)c1O", "hERG current change (%, negative = inhibition) at 10uM": 11.8}
{"molecule": "CC(=O)c1cccc(NC(=O)C(OC(=O)c2ccccc2NS(=O)(=O)c2cccs2)c2ccccc2)c1", "note": "(stereo not drawn)", "hERG current change (%, negative = inhibition) at 10uM": 7.75}
{"molecule": "CN1CCN(Cc2cc(COCc3ccccc3)c3cccnc3c2O)CC1", "hERG current change (%, negative = inhibition) at 10uM": -24.9}
{"molecule": "NC(=O)c1c(NC(=S)Nc2ccc(F)cc2)sc2c1CCCC2", "hERG current change (%, negative = inhibition) at 10uM": 21.9}
{"molecule": "Cc1ccccc1C(=O)c1cccn1CC(=O)NCc1ccccc1Cl", "hERG current change (%, negative = inhibition) at 10uM": 13.4}
{"molecule": "COCc1ccc(C(=O)Nc2ccc(C(=O)O)cc2)o1", "hERG current change (%, negative = inhibition) at 10uM": -1.08}
{"molecule": "CCOC(=O)c1cccc(NC(=O)CCn2nnc3ccccc32)c1", "hERG current change (%, negative = inhibition) at 10uM": -13.9}
{"molecule": "COc1ccc(CNC(=O)C(OC(=O)c2ccco2)c2ccccc2)cc1", "note": "(stereo not drawn)", "hERG current change (%, negative = inhibition) at 10uM": -19.4}
{"molecule": "N#C/C(=C\\c1ccccc1O)C(=O)Nc1ccccn1", "hERG current change (%, negative = inhibition) at 10uM": 10.1}
{"molecule": "O=C(c1ccccc1)c1cccn1CC(=O)N1CCN(c2ccccc2)CC1", "hERG current change (%, negative = inhibition) at 10uM": -9.33}
{"molecule": "Cc1ccc(S(=O)(=O)Cc2cc(-c3ccc(Cl)cc3)no2)cc1", "hERG current change (%, negative = inhibition) at 10uM": 15.7}
{"molecule": "COc1cc(OC)cc(-c2cc3nc(C)c(CCC(=O)O)c(=O)n3[nH]2)c1", "hERG current change (%, negative = inhibition) at 10uM": -0.0544}
{"molecule": "COCCC(=O)N1CCC(Oc2ccc(C(=O)N3CCC(N(C)C)C3)cc2)CC1", "note": "(stereo not drawn)", "hERG current change (%, negative = inhibition) at 10uM": 20.7}
{"molecule": "CN(C)CCOCCOc1ccc(Cl)cc1Br.O=C(O)C(=O)O", "hERG current change (%, negative = inhibition) at 10uM": -42.6}
{"molecule": "CC(=O)N1c2ccc(S(=O)(=O)N3CCCCC3)cc2CC1C(=O)Nc1cccc(C)c1", "note": "(stereo not drawn)", "hERG current change (%, negative = inhibition) at 10uM": -1.17}
{"molecule": "COc1ccccc1C(=O)NC(=O)COC(=O)c1oc2ccccc2c1C", "hERG current change (%, negative = inhibition) at 10uM": 1.8}
{"molecule": "CCOc1ccc(N2CC(C(=O)NCCCN3CCOCC3)CC2=O)cc1", "note": "(stereo not drawn)", "hERG current change (%, negative = inhibition) at 10uM": -5.47}
{"molecule": "CCc1nnc(NC(=O)CSc2nnc(-c3ccccc3O)n2CC)s1", "hERG current change (%, negative = inhibition) at 10uM": -7.99}
{"molecule": "O=C(NN=C1CCCCCCCCCCC1)c1cccnc1", "hERG current change (%, negative = inhibition) at 10uM": 19.8}
{"molecule": "CCOc1ccccc1NC(=O)CCc1nnc2ccc(N3CCC(C)CC3)nn12", "hERG current change (%, negative = inhibition) at 10uM": -17.5}
{"molecule": "COC(=O)c1cc(S(=O)(=O)N2CCN(c3ccc(OC)cc3)CC2)cn1C", "hERG current change (%, negative = inhibition) at 10uM": 10.1}
{"molecule": "CC(=O)Nc1cc2c(cc1C(=O)C(C)C)OCCO2", "hERG current change (%, negative = inhibition) at 10uM": 1.33}
{"molecule": "Cc1cc(C(=O)CN2C(=O)c3ccccc3C2=O)c(C)n1Cc1cccs1", "hERG current change (%, negative = inhibition) at 10uM": 1.03}
{"molecule": "O=C(Nc1nnc(C(F)(F)F)s1)c1cccnc1", "hERG current change (%, negative = inhibition) at 10uM": 7.36}
{"molecule": "Cc1cc(C(=O)N2CCCC(N3CCN(c4cccc(C(F)(F)F)c4)CC3)C2)n[nH]1", "note": "(stereo not drawn)", "hERG current change (%, negative = inhibition) at 10uM": -53.2}
{"molecule": "COc1cccc(N=Cc2c(O)n(-c3cccc(C)n3)c(=O)c3ccccc23)c1", "hERG current change (%, negative = inhibition) at 10uM": -11.5}
{"molecule": "CC(C)CC(=O)Nc1ccc([N+](=O)[O-])cc1Cl", "hERG current change (%, negative = inhibition) at 10uM": 23.3}
{"molecule": "COc1ccc(N(CC(=O)Nc2ccc(C)c(C)c2)S(=O)(=O)c2c(C)n[nH]c2C)cc1", "hERG current change (%, negative = inhibition) at 10uM": 8.31}
{"molecule": "CCCCNC(=O)C1c2cc(OC)c(OC)cc2C(=O)N(C)C1c1cccs1", "note": "(stereo not drawn)", "hERG current change (%, negative = inhibition) at 10uM": -5.73}
{"molecule": "CC(=O)N1C(=O)C2(Nc3ccccc3N2)c2ccccc21", "hERG current change (%, negative = inhibition) at 10uM": 9.28}
{"molecule": "COc1ccc(C2CC(c3cccs3)=NN2c2ccc(C=O)cc2)cc1", "note": "(stereo not drawn)", "hERG current change (%, negative = inhibition) at 10uM": -3.68}
